# In the supplement of paper PMC3334620:
# The full ranking holds about 33,000 sequences; the median of “E-score (-0.5 to 0.5)” is about -0.012, and the highest 2% start at about 0.27. This is one part of the list.
# Molecular target: T1, Vhr1 (UniProt P40522)
# T1 sequence: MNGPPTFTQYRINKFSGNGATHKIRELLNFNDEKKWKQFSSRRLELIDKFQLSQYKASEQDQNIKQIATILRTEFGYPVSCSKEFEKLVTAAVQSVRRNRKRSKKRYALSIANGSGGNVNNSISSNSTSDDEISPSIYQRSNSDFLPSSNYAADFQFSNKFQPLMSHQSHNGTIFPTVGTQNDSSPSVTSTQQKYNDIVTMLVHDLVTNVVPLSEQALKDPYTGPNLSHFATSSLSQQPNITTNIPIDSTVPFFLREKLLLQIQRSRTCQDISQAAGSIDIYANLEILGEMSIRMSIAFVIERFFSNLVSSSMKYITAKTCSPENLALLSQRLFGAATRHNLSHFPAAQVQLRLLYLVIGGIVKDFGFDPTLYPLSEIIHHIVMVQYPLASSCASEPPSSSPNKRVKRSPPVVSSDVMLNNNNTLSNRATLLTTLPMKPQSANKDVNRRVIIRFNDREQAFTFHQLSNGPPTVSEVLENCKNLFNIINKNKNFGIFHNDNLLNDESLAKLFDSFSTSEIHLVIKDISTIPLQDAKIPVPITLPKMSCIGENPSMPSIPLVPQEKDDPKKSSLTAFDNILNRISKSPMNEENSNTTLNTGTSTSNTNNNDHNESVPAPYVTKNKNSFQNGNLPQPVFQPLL
# Assay: PBM E-score (8-mer binding enrichment) (E-score (-0.5 to 0.5)); higher = stronger / more preferred TF binding; most listed sequences are background and not binding sites
# Conditions: protein concentration: 200 nM; construct: GST-full length
# Protocol: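 Universal 'all 10-mer' protein binding microarrays (Agilent AMADID 015681) probed with GST-tagged S. cerevisiae TFs (full-length or DBD) made by in vitro transcription/translation (PURExpress), about 100-200 nM. Bound TF was detected with fluorescent anti-GST. Each ungapped 8-mer (which stands for itself and its reverse complement) is scored by the PBM enrichment score (E-score), a modified Wilcoxon-Mann-Whitney statistic from -0.5 to +0.5, computed with the Universal PBM Analysis Suite. Scale: above 0.35 generally sequence-specific binding.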
row,Sequence,PBM E-score
1,CAGTACGA,0.205
2,CTAGATTA,-0.0479
3,ACCGAAAC,0.0907
4,TCCAACGA,-0.053
5,CTTAGGGC,-0.277
6,ATTGTGCC,-0.0216
7,CAAAGTCG,0.0683
8,AGTGGTAG,-0.0489
9,GCGCGAAC,0.0578
10,ATGGTAGG,0.104
11,CCACCAGG,0.0638
12,AGTAGGGC,-0.124
13,ACCCTTTG,-0.15
14,CGTTTTAC,-0.192
15,AACGGGAT,0.124
16,CTATAAAC,-0.0253
17,CTACGCCC,0.0207
18,TAGTTCGA,-0.0462
19,CCTCCCTC,0.0814
20,GCAACTCC,-0.159
21,GAACCCAA,-0.0255
22,ATCAGATG,0.00821
23,ATTTGACG,-0.0841
24,GTATGGGA,-0.178
25,GGATCTCA,-0.0499

row,Sequence,PBM E-score
1,CGTGATAC,-0.05
2,AATGCGGC,-0.0647
3,CGGTGGTA,0.0145
4,GTAGGTCA,-0.128
5,GAGTTGGA,0.0988
6,GACATCCA,0.004
7,GCCAATCA,-0.0381
8,GAGGCAGC,-0.137
9,CGCTAAGC,-0.0793
10,AGGACTGA,-0.143
11,AGTCATTA,0.368
12,ACAGAGAC,0.146
13,ACACTCGC,0.164
14,GAAATTGC,-0.136
15,GGTTACAC,-0.0231
16,AAACCACG,-0.079
17,CCCGAGAC,-0.0145
18,ACCTGCAC,-0.0149
19,CATATCGC,0.108
20,GGGGGAAC,0.0678
21,TGAAACAA,-0.0756
22,TACGCAGA,0.123
23,AACCTCCG,-0.142
24,CGTAAGAC,-0.223
25,GCGTCCCA,-0.106

row,Sequence,PBM E-score
1,AAAGCCCT,-0.213
2,TAGTATAA,0.037
3,ATCTGGGG,-0.0365
4,ACTGTGCC,-0.0794
5,AAGATCCG,-0.183
6,GGTTTAGA,-0.014
7,CTAACGAC,-0.185
8,CGAGGCCC,-0.0877
9,GGACAACC,-0.166
10,ATCCATGC,0.0584
11,CCAACGTA,-0.0646
12,CCCTGAGA,-0.099
13,CCAACCCC,0.0253
14,ACCATTAC,0.235
15,CAACGTGG,-0.0312
16,TGCACCCA,0.113
17,CGAAAGCA,-0.046
18,GACTTCTC,-0.129
19,CATTGTCA,0.0479
20,ATAGGGTC,0.197
21,AGGTAGAC,0.0654
22,CTCGCGTA,-0.105
23,GATGTGGC,0.0698
24,GTGTACCA,0.163
25,CCAGGACC,-0.0337

row,Sequence,PBM E-score
1,ATTCACTA,0.0464
2,GAGCGGAC,-0.168
3,TATATCGA,0.244
4,ACAAATGT,-0.0484
5,CAGCAAGG,-0.0914
6,GAGGAAGA,-0.0347
7,GTTCCATA,0.0199
8,CAGAATTA,-0.0726
9,CAGTGGCA,-0.257
10,AGGGATGA,0.15
11,ATGAGTTA,0.0485
12,ATACTAGA,0.0677
13,TTCCAAAA,-0.214
14,CGCGGGTA,0.212
15,AACGACTG,-0.0789
16,AGCTGCAT,-0.214
17,CACCTACG,-0.0294
18,AAATTTCC,-0.237
19,AGTAGGAT,-0.00756
20,ACGTGTAT,0.116
21,AACACTAG,0.0236
22,ATACGGCA,0.0905
23,CGAAGTAA,-0.107
24,GCGATACA,0.0396
25,ATGGCCCC,-0.228

row,Sequence,PBM E-score
1,ATATCAAT,0.214
2,ACATCTGA,-0.245
3,CCGCGCTA,0.225
4,ATCCTCTG,-0.134
5,AATTGCAT,-0.0683
6,CTAGATAA,-0.0922
7,GGTCCCAA,-0.0206
8,CGACTGGA,0.0449
9,CCCCCAGC,-0.15
10,CATACCGA,0.00498
11,AGACCTGC,-0.147
12,AACCGAAA,-0.242
13,AAGACTTA,-0.0601
14,AGTCTGCC,0.0302
15,GGGCTGTA,-0.134
16,TACCGGTA,0.0264
17,AGACGATA,0.0401
18,AATGCGGA,0.0182
19,AACCAAGT,-0.0417
20,ATGTGACC,0.216
21,ATGAGAGA,-0.025
22,AAGCAGGA,-0.00459
23,CCATATGG,0.0743
24,GGCCTTAA,-0.212
25,TCTGCCAA,-0.205

row,Sequence,PBM E-score
1,TTCTGCAA,-0.0232
2,ATATGCTC,0.143
3,ATACGCAT,0.147
4,CACGGCGG,0.102
5,CTATACGA,-0.0332
6,ACCTATCA,-0.0422
7,ACCTAGTA,0.0588
8,AAGATAAG,0.0463
9,AATCATCT,0.185
10,CCTGGTCA,0.0815
11,AGATCGTG,-0.0385
12,AAGGCCCA,-0.0641
13,CACGCATG,0.0925
14,GTGGTTAA,0.176
15,GCGGGGAC,0.216
16,AGGTATAA,-0.0154
17,CGTCGTGC,0.0934
18,AATGTAAA,-0.0495
19,ACTAGGGG,0.035
20,TGCCTACA,-0.113
21,AGAATGCA,0.106
22,CGGCATGC,0.182
23,GTTAGCTA,0.0588
24,CCGGAATA,-0.0911
25,GTTAAGCA,-0.0747

row,Sequence,PBM E-score
1,GCAGACAC,0.0989
2,ATCAAATG,0.0659
3,CCCCTTGA,0.0801
4,TAGGTTCA,0.0506
5,AGCTAGAT,-0.0103
6,ATAGGAGA,-0.00333
7,GGCCGTAA,-0.155
8,ACTAATCG,0.251
9,CGCGCTAG,0.0638
10,GAGCACGA,0.129
11,GATGATCA,0.285
12,GCCATACA,0.124
13,ATCCACAC,0.119
14,TACTTCCA,-0.106
15,AAGTGTCG,0.0415
16,CGTCGGTC,0.146
17,AGAACGGG,-0.148
18,CTGAAAAA,-0.255
19,CCTTATTC,-0.283
20,ACAACGTA,-0.0839
21,ACACCGCC,0.205
22,GATCACAC,0.24
